{
  "source": "PubChem BioAssay AID504706",
  "about": "(National Center for Advancing Translational Sciences (NCATS), 2011)",
  "note": "The whole screen tested about 320,000 compounds, of which about 200 (0.062%) were called active. Inconclusive means that the source gave no clear call. Such entries were picked first, then a sample of the others. Calls follow the shape of the dose curve; as a rule, active = well fitted activation curve with a large enough effect; inconclusive = small, poorly fitted or top-dose-only effect; inactive = no such curve, though single readings can be large or run the other way. No potency is given beside an inconclusive call; the fits are too rough. Potency is read from the fitted curve at half-maximal effect; tags tell the direction and shape of the fitted curve.",
  "data": [
    {"test": "qHTS assay for re-activators of p53 using a Luc reporter; also: nearly all actives have a fitted effect of over 45% in size", "settings": "H1299 p53-A138V BP100-luciferase reporter, luminescence, 24 h; series mostly up to 92.2 µM", "method_in_brief": "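H1299 (p53-null), stable ts p53-A138V + BP100-Luc; 1000 cells/well, Opti-MEM/10% FBS; cpd 4 pt, 1:5; 24 h, 37 deg C, 5% CO2; detection reagent 10 min RT; luminescence.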", "values": [
      {"smiles": "CCCCCOC(=O)c1ccc(NC(=O)c2cccc(NC(=O)c3ccccc3C(=O)O)c2)cc1", "Potency": "inactive"},
      {"smiles": "Cc1cccc(NC(=S)NCc2ccncc2)c1C", "Potency": "inactive"},
      {"smiles": "CC(=O)N1CC(c2ccccc2)C(c2ccc(Cl)cc2)=N1", "note": "(centres undefined)", "Potency": "inactive"},
      {"smiles": "O=C(Nc1ccccc1)c1cc2ccccc2o1", "Potency": "inconclusive [activator, partial curve, poor fit]"},
      {"smiles": "O=C(Oc1ccc(OC(=O)C2CCC2)cc1)C1CCC1", "Potency": "inconclusive [activator, single point]"},
      {"smiles": "CCN1CCN(C(CNC(=O)c2ccc3c(c2)OCO3)c2cccnc2)CC1", "note": "(centres undefined)", "Potency": "inconclusive [activator, full curve, poor fit]"},
      {"smiles": "Cc1ccc(N2CCN(C(=S)c3ccc(N(C)C)cc3)CC2)cc1", "Potency": "inconclusive [activator, single point]"},
      {"smiles": "O=C(CN(Cc1cccs1)C(=O)CSc1nnc(COc2ccccc2)o1)NC1CCCC1", "Potency": "inactive"},
      {"smiles": "Cc1ccc(C(=O)COC(=O)c2ccc(-c3cnc4ccccc4n3)cc2)cc1C", "Potency": "inconclusive [activator, partial curve, poor fit]"},
      {"smiles": "Clc1ccc(-c2cn3nc4c(nc3n2)CCCC4)cc1", "Potency": "inactive"},
      {"smiles": "CCCNC(=O)c1cc(-c2ccco2)on1", "Potency": "inconclusive [activator, full curve, poor fit]"},
      {"smiles": "Cc1ccc(C(=O)OCC(=O)NCCC2=CCCCC2)s1", "Potency": "inconclusive [activator, full curve, poor fit]"},
      {"smiles": "CN(C)S(=O)(=O)c1cccc(NC(=O)CCc2nc3sc4c(c3c(=O)[nH]2)CCCC4)c1", "Potency": "inactive"},
      {"smiles": "CC1(NC(=O)CCc2nc3ccccc3c(=O)[nH]2)CCS(=O)(=O)C1", "note": "(centres undefined)", "Potency": "inconclusive [activator, single point]"},
      {"smiles": "COc1ccc(C(=O)Nc2ccccc2C(=O)NC(Cc2ccc(O)cc2)C(=O)NNC(=O)c2ccccc2Cl)cc1", "note": "(centres undefined)", "Potency": "inconclusive [activator, single point]"},
      {"smiles": "O=C(CSc1nnc(-c2ccccc2Cl)o1)N1CCOCC1", "Potency": "inconclusive [activator, partial curve, poor fit]"},
      {"smiles": "CC(C)(C)c1ccccc1OCC(=O)Nc1ncn[nH]1", "Potency": "inactive"},
      {"smiles": "COC(=O)c1ccc(/C=C/c2ccc3cccc(OC(C)=O)c3n2)cc1", "Potency": "inconclusive [activator, full curve, poor fit]"},
      {"smiles": "CC1(C(=O)Nc2ccc3c(c2)OCO3)CC1(Cl)Cl", "note": "(centres undefined)", "Potency": "inconclusive [activator, partial curve, poor fit]"},
      {"smiles": "Cc1cc(-c2ccccc2)nc(N2CCC(C(=O)NCc3ccccc3Cl)CC2)n1", "Potency": "inconclusive [activator, partial curve, poor fit]"},
      {"smiles": "Fc1ccc(CNC2CCN(Cc3ccccc3)CC2)cc1", "Potency": "inconclusive [activator, partial curve]"},
      {"smiles": "COC(=O)c1ccc(/C=C(\\C#N)C(=O)NC(C)c2ccccc2)cc1", "note": "(centres undefined)", "Potency": "inactive"},
      {"smiles": "CC(C)c1ccc(NC(=S)NN2CCN(C)CC2)cc1", "Potency": "inactive"},
      {"smiles": "Cc1ccc(-c2cc(N)on2)cc1", "Potency": "inconclusive [activator, single point]"},
      {"smiles": "C/C(=N\\NC(=O)COc1ccccc1F)c1cc2ccccc2o1", "Potency": "inconclusive [activator, partial curve, poor fit]"},
      {"smiles": "C=Cc1ccc(CN2CCCN(Cc3ccc(Cl)cc3)S2(=O)=O)cc1", "Potency": "inconclusive [activator, partial curve, poor fit]"},
      {"smiles": "Cc1[nH]nc(Nc2ccc(C(C)C)cc2)c1[N+](=O)[O-]", "Potency": "inconclusive [activator, full curve, poor fit]"},
      {"smiles": "CNc1ccccc(-c2ccc3cc4c(cc3n2)OCO4)c1=O", "Potency": "inconclusive [activator, partial curve, poor fit]"},
      {"smiles": "Oc1cccc(/C=N/n2c(C3CCCCC3)n[nH]c2=S)c1", "Potency": "inactive"},
      {"smiles": "Cc1nc2nc[nH]n2c(=O)c1CCOC(=O)c1ccccc1F", "Potency": "inactive"},
      {"smiles": "O=C(N/N=C/c1ccc(OC(=O)c2cccs2)cc1)c1cccc(F)c1", "Potency": "inconclusive [activator, partial curve, poor fit]"},
      {"smiles": "Cc1cc(C(=O)COC(=O)c2ccc[nH]c2=O)c(C)n1C1CC1", "Potency": "inconclusive [activator, partial curve, poor fit]"},
      {"smiles": "O=C(CCn1[nH]c(=O)c2ccccc2c1=O)OC1CCCCC1", "Potency": "inactive"},
      {"smiles": "O=C(CCS(=O)(=O)c1ccc(Cl)cc1)Nc1nc(-c2cccnc2)cs1", "Potency": "inconclusive [activator, partial curve, poor fit]"},
      {"smiles": "CCC1(CC)Nc2ccccc2C(=O)N1c1ccc(NC(C)=O)cc1", "Potency": "inconclusive [activator, partial curve, poor fit]"},
      {"smiles": "Cc1ccc(-c2csc(NC(=O)c3ccccc3Cl)c2C(=O)O)cc1", "Potency": "inactive"},
      {"smiles": "CN1CCN(C(=O)CCN2C(=O)/C(=C\\c3ccccc3F)SC2=S)CC1", "Potency": "inconclusive [activator, partial curve, poor fit]"},
      {"smiles": "Cc1ccc(OC(=O)c2cccc(S(=O)(=O)N(C)C)c2)c(-n2nc3ccccc3n2)c1", "Potency": "inconclusive [activator, full curve]"},
      {"smiles": "Cc1ccc(C(=O)Nc2ccc3nc(C)sc3c2)s1", "Potency": "inconclusive [activator, full curve, poor fit]"},
      {"smiles": "COCCNC(=O)CC(NS(=O)(=O)c1ccc(NC(C)=O)cc1)C(C)C", "note": "(centres undefined)", "Potency": "inactive"},
      {"smiles": "CC1=NN(c2ccccc2)C(=O)C1C(=O)c1ccccc1", "note": "(centres undefined)", "Potency": "inconclusive [activator, full curve, poor fit]"},
      {"smiles": "CC(=O)c1ccc(-n2c(C)ccc2-c2ccccc2)cc1", "Potency": "inconclusive [activator, single point]"},
      {"smiles": "c1csc(CSc2nc3ccccc3s2)c1", "Potency": "inconclusive [activator, full curve, poor fit]"},
      {"smiles": "COc1ccc(/C=C/c2noc(-c3ccccc3O)n2)cc1", "Potency": "inconclusive [activator, partial curve, poor fit]"}
    ]}
  ]
}
